Here are results for 10 molecules from article PMC9597577, “Mutant Ras and inflammation-driven skin tumorigenesis is suppressed via a JNK-iASPP-AP1 axis” (Cell Reports, 2022).

Protein sequences, listed by entry. Tags and fused reporters are not part of them.
UniProt P05412: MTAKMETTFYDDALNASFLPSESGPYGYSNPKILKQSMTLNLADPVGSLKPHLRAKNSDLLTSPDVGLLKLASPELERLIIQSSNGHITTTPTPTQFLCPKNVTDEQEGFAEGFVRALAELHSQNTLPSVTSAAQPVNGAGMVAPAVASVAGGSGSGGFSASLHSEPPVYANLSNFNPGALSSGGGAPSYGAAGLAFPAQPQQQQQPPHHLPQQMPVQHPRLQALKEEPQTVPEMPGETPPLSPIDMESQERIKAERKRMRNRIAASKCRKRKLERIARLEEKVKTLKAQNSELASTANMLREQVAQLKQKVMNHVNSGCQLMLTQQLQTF
UniProt P01100: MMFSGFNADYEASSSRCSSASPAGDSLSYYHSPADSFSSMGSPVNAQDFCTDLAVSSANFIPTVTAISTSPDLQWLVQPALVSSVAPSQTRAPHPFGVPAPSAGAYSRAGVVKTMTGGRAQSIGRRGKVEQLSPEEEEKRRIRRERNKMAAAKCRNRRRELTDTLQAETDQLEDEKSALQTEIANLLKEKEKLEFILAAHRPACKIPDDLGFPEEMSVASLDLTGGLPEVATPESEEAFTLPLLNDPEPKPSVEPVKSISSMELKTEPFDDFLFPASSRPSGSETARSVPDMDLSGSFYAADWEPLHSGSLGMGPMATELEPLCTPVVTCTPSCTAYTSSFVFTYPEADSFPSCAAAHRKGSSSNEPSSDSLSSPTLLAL

No constants are given. Whether binding was seen depends on the method and setting. In cells and extracts the contact can be indirect. Some entries that bind do so weakly or less than the wild type. For part of these data: Where a sequence is shown, tags or fusion partners need not be part of it.

Experiment [1] has as its target T1, Halo-tagged iASPP CTD (625–828) (UniProt Q8WUF5).
T1 sequence: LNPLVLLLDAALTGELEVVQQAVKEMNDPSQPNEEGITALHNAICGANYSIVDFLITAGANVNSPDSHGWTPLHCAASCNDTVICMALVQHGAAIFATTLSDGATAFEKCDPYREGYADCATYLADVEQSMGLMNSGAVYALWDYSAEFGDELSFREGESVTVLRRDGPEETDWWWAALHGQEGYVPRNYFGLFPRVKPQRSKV
As to the kind of experiment: pull-down; displacement pull-down: Halo-iASPP CTD on magnetic Halo beads, in vitro translated Myc-tagged protein, with or without 25 μM JunD or PP1 peptide; anti-Myc blot; only the target purified.

Experiment [2] deals with T2, Halo-tagged ASPP1 CTD (887–1090) (UniProt Q96KQ4).
T2 sequence: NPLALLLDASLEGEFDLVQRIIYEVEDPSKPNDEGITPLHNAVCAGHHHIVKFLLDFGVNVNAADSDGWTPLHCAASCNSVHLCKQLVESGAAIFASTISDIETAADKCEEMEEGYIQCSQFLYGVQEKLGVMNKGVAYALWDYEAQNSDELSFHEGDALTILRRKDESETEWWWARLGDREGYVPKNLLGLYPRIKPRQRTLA
Nature of the experiment: pull-down; 100 μg purified Halo fusion protein immobilised on magnetic Halo beads; 20 μL in vitro translated Myc-tagged protein, 3 h at 4°C; 50 mM HEPES pH 7.5, 200 mM NaCl, 0.5 mM TCEP, 0.1% Surfactant P-20; anti-Myc blot; only the target purified.

Experiment [3] has as its target T3, Halo-tagged ASPP2 CTD (925–1128) (UniProt Q13625).
T3 sequence: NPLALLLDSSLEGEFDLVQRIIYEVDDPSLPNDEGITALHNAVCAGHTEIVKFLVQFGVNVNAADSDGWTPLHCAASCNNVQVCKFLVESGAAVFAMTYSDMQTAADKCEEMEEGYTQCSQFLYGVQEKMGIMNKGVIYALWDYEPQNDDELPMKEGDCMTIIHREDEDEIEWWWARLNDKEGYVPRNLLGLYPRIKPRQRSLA
The experiment is described as above.

In experiment [4] the target is T1, Halo-tagged iASPP CTD (625–828). Described as above.
Experiment [5] has as its target T4, iASPP (endogenous, immunoprecipitated with LX49.3 or LX128.5) (human (endogenous in HaCaT)) (UniProt Q8WUF5).
T4 sequence: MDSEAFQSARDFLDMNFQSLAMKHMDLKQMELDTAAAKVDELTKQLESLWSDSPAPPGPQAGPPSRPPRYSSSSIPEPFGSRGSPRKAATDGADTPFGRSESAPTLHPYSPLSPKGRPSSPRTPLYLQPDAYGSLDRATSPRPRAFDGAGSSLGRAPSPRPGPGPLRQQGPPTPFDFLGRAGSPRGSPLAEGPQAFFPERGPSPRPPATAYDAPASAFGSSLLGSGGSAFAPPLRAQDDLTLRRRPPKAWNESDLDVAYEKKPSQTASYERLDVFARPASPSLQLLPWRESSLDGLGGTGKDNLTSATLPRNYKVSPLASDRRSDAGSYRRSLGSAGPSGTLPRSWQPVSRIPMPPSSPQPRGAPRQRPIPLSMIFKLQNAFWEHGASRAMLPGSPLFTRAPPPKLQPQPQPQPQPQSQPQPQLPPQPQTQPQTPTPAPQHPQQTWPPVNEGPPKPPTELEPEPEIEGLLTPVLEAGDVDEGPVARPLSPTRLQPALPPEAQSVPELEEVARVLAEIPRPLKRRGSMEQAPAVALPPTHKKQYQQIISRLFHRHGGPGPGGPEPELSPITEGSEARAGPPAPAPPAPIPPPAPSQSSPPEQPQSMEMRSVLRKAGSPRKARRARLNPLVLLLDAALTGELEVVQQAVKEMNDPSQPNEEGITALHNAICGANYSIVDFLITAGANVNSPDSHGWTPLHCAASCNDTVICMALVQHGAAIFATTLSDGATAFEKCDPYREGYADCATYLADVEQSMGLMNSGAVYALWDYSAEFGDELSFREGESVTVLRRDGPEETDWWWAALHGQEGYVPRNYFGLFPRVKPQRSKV
Nature of the experiment: co-IP; IP of endogenous iASPP with anti-iASPP LX49.3 from lysates of control (CTRL) cells, blot for AP1 members; each sign is one experiment (biological replicate).

Experiment [6] addresses T4, iASPP (endogenous, immunoprecipitated with LX49.3 or LX128.5) (human (endogenous in HaCaT)). Nature of the experiment: co-IP; IP of endogenous iASPP with anti-iASPP LX128.5 from lysates of control (CTRL) cells, blot for AP1 members; each sign is one experiment (biological replicate).

Turning to “Myc-tagged c-Jun (from UniProt P05412 1-331)”, the binding entry in experiment [1], in experiment [2], in experiment [3] and in experiment [4] was “binds” in each case.

With “Myc-tagged c-Fos (from UniProt P01100 1-380)”, the binding result in experiment [4] is on record as “no binding”.

B1: Myc-tagged ΔNp63α (protein, UniProt Q9H3D4-2 1-586)
chain: MLYLENNAQTQFSEPQYTNLGLLNSMDQQIQNGSSSTSPYNTDHAQNSVTAPSPYAQPSSTFDALSPSPAIPSNTDYPGPHSFDVSFQQSSTAKSATWTYSTELKKLYCQIAKTCPIQIKVMTPPPQGAVIRAMPVYKKAEHVTEVVKRCPNHELSREFNEGQIAPPSHLIRVEGNSHAQYVEDPITGRQSVLVPYEPPQVGTEFTTVLYNFMCNSSCVGGMNRRPILIIVTLETRDGQVLGRRCFEARICACPGRDRKADEDSIRKQQVSDSTKNGDGTKRPFRQNTHGIQMTSIKKRRSPDDELLYLPVRGRETYEMLLKIKESLELMQYLPQHTIETYRQQQQQQHQHLLQKQTSIQSPSSYGNSSPPLNKMNSMNKLPSVSQLINPQQRNALTPTTIPDGMGANIPMMGTHMPMAGDMNGLSPTQALPPPLSMPSTSHCTPPPPYPTDCSIVSFLARLGCSSCLDYFTTQGLTTIYQIEHYSMDDLASLKIPEQFRHAIWKGILDHRQLHEFSSPSHLLRTPSSASTVSVGSSETRGERVIDAVRFTLRQTISFPPRDEWNDFNFDMDARRNKQQRIKEEGE
On to B1, for which the binding entry in experiment [1] was “binds”.

B2: JunB (endogenous) (protein, UniProt P17275 1-347)
chain: MCTKMEQPFYHDDSYTATGYGRAPGGLSLHDYKLLKPSLAVNLADPYRSLKAPGARGPGPEGGGGGSYFSGQGSDTGASLKLASSELERLIVPNSNGVITTTPTPPGQYFYPRGGGSGGGAGGAGGGVTEEQEGFADGFVKALDDLHKMNHVTPPNVSLGATGGPPAGPGGVYAGPEPPPVYTNLSSYSPASASSGGAGAAVGTGSSYPTTTISYLPHAPPFAGGHPAQLGLGRGASTFKEEPQTVPEARSRDATPPVSPINMEDQERIKVERKRLRNRLAATKCRKRKLERIARLEDKVKTLKAENAGLSSTAGLLREQVAQLKQKVMTHVSNGCQLLLGVKGHAF
As to B2, the binding entry in experiment [5] and in experiment [6] was “binds” each time.

B3: JunD (endogenous) (protein, UniProt P17535 1-347)
chain: METPFYGDEALSGLGGGASGSGGSFASPGRLFPGAPPTAAAGSMMKKDALTLSLSEQVAAALKPAAAPPPTPLRADGAPSAAPPDGLLASPDLGLLKLASPELERLIIQSNGLVTTTPTSSQFLYPKVAASEEQEFAEGFVKALEDLHKQNQLGAGAAAAAAAAAAGGPSGTATGSAPPGELAPAAAAPEAPVYANLSSYAGGAGGAGGAATVAFAAEPVPFPPPPPPGALGPPRLAALKDEPQTVPDVPSFGESPPLSPIDMDTQERIKAERKRLRNRIAASKCRKRKLERISRLEEKVKTLKSQNTELASTASLLREQVAQLKQKVLSHVNSGCQLLPQHQVPAY
Turning to B3, the binding result in experiment [5] and in experiment [6] was “binds” in each case.

B4: Myc-tagged JunD T71V (protein, UniProt P17535 1-347)
chain: METPFYGDEALSGLGGGASGSGGSFASPGRLFPGAPPTAAAGSMMKKDALTLSLSEQVAAALKPAAAPPPVPLRADGAPSAAPPDGLLASPDLGLLKLASPELERLIIQSNGLVTTTPTSSQFLYPKVAASEEQEFAEGFVKALEDLHKQNQLGAGAAAAAAAAAAGGPSGTATGSAPPGELAPAAAAPEAPVYANLSSYAGGAGGAGGAATVAFAAEPVPFPPPPPPGALGPPRLAALKDEPQTVPDVPSFGESPPLSPIDMDTQERIKAERKRLRNRIAASKCRKRKLERISRLEEKVKTLKSQNTELASTASLLREQVAQLKQKVLSHVNSGCQLLPQHQVPAY
Take B4: in experiment [4], the binding result is on record as “binds”.

B5: Myc-tagged JunD (protein, UniProt P17535 1-347)
chain: METPFYGDEALSGLGGGASGSGGSFASPGRLFPGAPPTAAAGSMMKKDALTLSLSEQVAAALKPAAAPPPTPLRADGAPSAAPPDGLLASPDLGLLKLASPELERLIIQSNGLVTTTPTSSQFLYPKVAASEEQEFAEGFVKALEDLHKQNQLGAGAAAAAAAAAAGGPSGTATGSAPPGELAPAAAAPEAPVYANLSSYAGGAGGAGGAATVAFAAEPVPFPPPPPPGALGPPRLAALKDEPQTVPDVPSFGESPPLSPIDMDTQERIKAERKRLRNRIAASKCRKRKLERISRLEEKVKTLKSQNTELASTASLLREQVAQLKQKVLSHVNSGCQLLPQHQVPAY
As to B5, the binding entry in experiment [1], in experiment [2], in experiment [3] and in experiment [4] was “binds” throughout.

B6: Myc-tagged JunD T71D (protein, UniProt P17535 1-347)
chain: METPFYGDEALSGLGGGASGSGGSFASPGRLFPGAPPTAAAGSMMKKDALTLSLSEQVAAALKPAAAPPPDPLRADGAPSAAPPDGLLASPDLGLLKLASPELERLIIQSNGLVTTTPTSSQFLYPKVAASEEQEFAEGFVKALEDLHKQNQLGAGAAAAAAAAAAGGPSGTATGSAPPGELAPAAAAPEAPVYANLSSYAGGAGGAGGAATVAFAAEPVPFPPPPPPGALGPPRLAALKDEPQTVPDVPSFGESPPLSPIDMDTQERIKAERKRLRNRIAASKCRKRKLERISRLEEKVKTLKSQNTELASTASLLREQVAQLKQKVLSHVNSGCQLLPQHQVPAY
For the molecule B6, the binding entry in experiment [4] is given as “no binding”.

B7: Myc-tagged JunD mutPxxP (protein, UniProt P17535 1-347)
chain: METPFYGDEALSGLGGGASGSGGSFASPGRLFPGAPPTAAAGSMMKKDALTLSLSEQVAAALKPAAAPAPTALAADGAPSAAPPDGLLASPDLGLLKLASPELERLIIQSNGLVTTTPTSSQFLYPKVAASEEQEFAEGFVKALEDLHKQNQLGAGAAAAAAAAAAGGPSGTATGSAPPGELAPAAAAPEAPVYANLSSYAGGAGGAGGAATVAFAAEPVPFPPPPPPGALGPPRLAALKDEPQTVPDVPSFGESPPLSPIDMDTQERIKAERKRLRNRIAASKCRKRKLERISRLEEKVKTLKSQNTELASTASLLREQVAQLKQKVLSHVNSGCQLLPQHQVPAY
In the case of B7, the binding result in experiment [4] is recorded as “no binding”.

B8: Myc-tagged JunD ΔPxxP (protein, UniProt P17535)
chain: METPFYGDEALSGLGGGASGSGGSFASPGRLFPGAPPTAAAGSMMKKDALTLSLSEQVAAALKPAAAPADGAPSAAPPDGLLASPDLGLLKLASPELERLIIQSNGLVTTTPTSSQFLYPKVAASEEQEFAEGFVKALEDLHKQNQLGAGAAAAAAAAAAGGPSGTATGSAPPGELAPAAAAPEAPVYANLSSYAGGAGGAGGAATVAFAAEPVPFPPPPPPGALGPPRLAALKDEPQTVPDVPSFGESPPLSPIDMDTQERIKAERKRLRNRIAASKCRKRKLERISRLEEKVKTLKSQNTELASTASLLREQVAQLKQKVLSHVNSGCQLLPQHQVPAY
Regarding B8, the binding entry in experiment [4] is “no binding”.
